B1: h1830-S22 (bispecific antibody, human IgG4 S228P, kappa)
heavy: QVQLQESGPGLVKPSQTLSLTCTVSGGSISDGSAYWSWIRQHPGKGLEYIGFISRAGSTYNTPSLKGRVTISRDTSKNQFSLKLSSVTAADTAVYYCARSGGWLAPFDYWGRGTLVTVSSASTKGPSVFPLAPCSRSTSESTAALGCLVKDYFPEPVTVSWNSGALTSGVHTFPAVLQSSGLYSLSSVVTVPSSSLGTKTYTCNVDHKPSNTKVDKRV[human IgG4 Fc with S228P (EU numbers) not given here]GGGGSGGGGSGGGGGGEEELQMIQPEKLLLVTVGETATLHCTVTSLLPVGPVLWFRGVGPGRELIYISGRGHFPRVTTVSDLTKRNNMDFSIRISSITPADVGTYYCVKFRKGSPEDVEFKSGPGTEMALGAKPS
light: DIVMTQSPDSLAVSLGERATINCKSSQSLFYHSNQKHSLAWYQQKPGQPPKLLIYGASTRESGVPDRFSGSGSGTDFTLTISSLQAEDVAVYYCQQYYGYPYTFGGGTKVEIKRTVAAPSVFIFPPSDEQLKSGTASVVCLLNNFYPREAKVQWKVDNALQSGNSQESVTEQDSKDSTYSLSSTLTLSKADYEKHKVYACEVTHQGLSSPVTKSFNRGEC
notes: h1830 IgG4 with SIRPγ variant S22, GS16 linker
B2: h1830-S41 (bispecific antibody, human IgG4 S228P, kappa)
heavy: QVQLQESGPGLVKPSQTLSLTCTVSGGSISDGSAYWSWIRQHPGKGLEYIGFISRAGSTYNTPSLKGRVTISRDTSKNQFSLKLSSVTAADTAVYYCARSGGWLAPFDYWGRGTLVTVSSASTKGPSVFPLAPCSRSTSESTAALGCLVKDYFPEPVTVSWNSGALTSGVHTFPAVLQSSGLYSLSSVVTVPSSSLGTKTYTCNVDHKPSNTKVDKRV[human IgG4 Fc with S228P (EU numbers) not given here]GGGGSGGGGSGGGGGGEEELQMIQPEKLLLVTVGETATLHCTVTSLLPVGPVLWFRGVGPGRELIYVSGRGHFPRVTTVSDLTKRNNMDFSIRISSITPADVGTYYCVKFRKGSPEDVEFKSGPGTEMALGAKPS
light: DIVMTQSPDSLAVSLGERATINCKSSQSLFYHSNQKHSLAWYQQKPGQPPKLLIYGASTRESGVPDRFSGSGSGTDFTLTISSLQAEDVAVYYCQQYYGYPYTFGGGTKVEIKRTVAAPSVFIFPPSDEQLKSGTASVVCLLNNFYPREAKVQWKVDNALQSGNSQESVTEQDSKDSTYSLSSTLTLSKADYEKHKVYACEVTHQGLSSPVTKSFNRGEC
notes: h1830 IgG4 with SIRPγ variant S41, GS16 linker
B3: h1830-S34 (bispecific antibody, human IgG4 S228P, kappa)
heavy: QVQLQESGPGLVKPSQTLSLTCTVSGGSISDGSAYWSWIRQHPGKGLEYIGFISRAGSTYNTPSLKGRVTISRDTSKNQFSLKLSSVTAADTAVYYCARSGGWLAPFDYWGRGTLVTVSSASTKGPSVFPLAPCSRSTSESTAALGCLVKDYFPEPVTVSWNSGALTSGVHTFPAVLQSSGLYSLSSVVTVPSSSLGTKTYTCNVDHKPSNTKVDKRV[human IgG4 Fc with S228P (EU numbers) not given here]GGGGSGGGGSGGGGGGEEELQMIQPEKLLLVTVGETATLHCTVTSLLPVGPVLWFRGVGPGRELIYRSGRGHFPRVTTVSDLTKRNNMDFSIRISSITPADVGTYYCVKFRKGSPEDVEFKSGPGTEMALGAKPS
light: DIVMTQSPDSLAVSLGERATINCKSSQSLFYHSNQKHSLAWYQQKPGQPPKLLIYGASTRESGVPDRFSGSGSGTDFTLTISSLQAEDVAVYYCQQYYGYPYTFGGGTKVEIKRTVAAPSVFIFPPSDEQLKSGTASVVCLLNNFYPREAKVQWKVDNALQSGNSQESVTEQDSKDSTYSLSSTLTLSKADYEKHKVYACEVTHQGLSSPVTKSFNRGEC
notes: h1830 IgG4 with SIRPγ variant S34, GS16 linker
B4: h1830-S29 (bispecific antibody, human IgG4 S228P, kappa)
heavy: QVQLQESGPGLVKPSQTLSLTCTVSGGSISDGSAYWSWIRQHPGKGLEYIGFISRAGSTYNTPSLKGRVTISRDTSKNQFSLKLSSVTAADTAVYYCARSGGWLAPFDYWGRGTLVTVSSASTKGPSVFPLAPCSRSTSESTAALGCLVKDYFPEPVTVSWNSGALTSGVHTFPAVLQSSGLYSLSSVVTVPSSSLGTKTYTCNVDHKPSNTKVDKRV[human IgG4 Fc with S228P (EU numbers) not given here]GGGGSGGGGSGGGGGGEEELQMIQPEKLLLVTVGETATLHCTVTSLLPVGPVLWFRGVGPGRELIYLSGRGHFPRVTTVSDLTKRNNMDFSIRISSITPADVGTYYCVKFRKGSPEDVEFKSGPGTEMALGAKPS
light: DIVMTQSPDSLAVSLGERATINCKSSQSLFYHSNQKHSLAWYQQKPGQPPKLLIYGASTRESGVPDRFSGSGSGTDFTLTISSLQAEDVAVYYCQQYYGYPYTFGGGTKVEIKRTVAAPSVFIFPPSDEQLKSGTASVVCLLNNFYPREAKVQWKVDNALQSGNSQESVTEQDSKDSTYSLSSTLTLSKADYEKHKVYACEVTHQGLSSPVTKSFNRGEC
notes: h1830 IgG4 with SIRPγ variant S29, GS16 linker
B5: h1830-S38 (bispecific antibody, human IgG4 S228P, kappa)
heavy: QVQLQESGPGLVKPSQTLSLTCTVSGGSISDGSAYWSWIRQHPGKGLEYIGFISRAGSTYNTPSLKGRVTISRDTSKNQFSLKLSSVTAADTAVYYCARSGGWLAPFDYWGRGTLVTVSSASTKGPSVFPLAPCSRSTSESTAALGCLVKDYFPEPVTVSWNSGALTSGVHTFPAVLQSSGLYSLSSVVTVPSSSLGTKTYTCNVDHKPSNTKVDKRV[human IgG4 Fc with S228P (EU numbers) not given here]GGGGSGGGGSGGGGGGEEELQMIQPEKLLLVTVGETATLHCTVTSLLPVGPVLWFRGVGPGRELIYFSGRGHFPRVTTVSDLTKRNNMDFSIRISSITPADVGTYYCVKFRKGSPEDVEFKSGPGTEMALGAKPS
light: DIVMTQSPDSLAVSLGERATINCKSSQSLFYHSNQKHSLAWYQQKPGQPPKLLIYGASTRESGVPDRFSGSGSGTDFTLTISSLQAEDVAVYYCQQYYGYPYTFGGGTKVEIKRTVAAPSVFIFPPSDEQLKSGTASVVCLLNNFYPREAKVQWKVDNALQSGNSQESVTEQDSKDSTYSLSSTLTLSKADYEKHKVYACEVTHQGLSSPVTKSFNRGEC
notes: h1830 IgG4 with SIRPγ variant S38, GS16 linker
B6: h1830-S42 (bispecific antibody, human IgG4 S228P, kappa)
heavy: QVQLQESGPGLVKPSQTLSLTCTVSGGSISDGSAYWSWIRQHPGKGLEYIGFISRAGSTYNTPSLKGRVTISRDTSKNQFSLKLSSVTAADTAVYYCARSGGWLAPFDYWGRGTLVTVSSASTKGPSVFPLAPCSRSTSESTAALGCLVKDYFPEPVTVSWNSGALTSGVHTFPAVLQSSGLYSLSSVVTVPSSSLGTKTYTCNVDHKPSNTKVDKRV[human IgG4 Fc with S228P (EU numbers) not given here]GGGGSGGGGSGGGGGGEEELQMIQPEKLLLVTVGETATLHCTVTSLLPVGPVLWFRGVGPGRELIYMSGRGHFPRVTTVSDLTKRNNIDFSIRISSITPADVGTYYCVKFRKGSPEDVEFKSGPGTEMALGAKPS
light: DIVMTQSPDSLAVSLGERATINCKSSQSLFYHSNQKHSLAWYQQKPGQPPKLLIYGASTRESGVPDRFSGSGSGTDFTLTISSLQAEDVAVYYCQQYYGYPYTFGGGTKVEIKRTVAAPSVFIFPPSDEQLKSGTASVVCLLNNFYPREAKVQWKVDNALQSGNSQESVTEQDSKDSTYSLSSTLTLSKADYEKHKVYACEVTHQGLSSPVTKSFNRGEC
notes: h1830 IgG4 with SIRPγ variant S42, GS16 linker

By Kd is commonly meant the free concentration of one partner at which half of the binding sites on the other are occupied at equilibrium, for simple one-to-one binding. Low readings indicate a tighter complex, high ones a looser complex.

The experiment deals with T1, Human CD47-his (CD47-ECD-His) (human, UniProt Q08722 part only, limits assumed).
T1 construct: also called hCD47; free human CD47 protein
T1 sequence (Q08722 19-139 limits assumed): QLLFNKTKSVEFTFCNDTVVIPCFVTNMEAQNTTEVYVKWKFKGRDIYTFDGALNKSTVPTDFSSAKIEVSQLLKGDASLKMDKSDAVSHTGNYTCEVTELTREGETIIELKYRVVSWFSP
As to the kind of experiment: SPR (Biacore T200), binder captured on Protein A chip, antigen in flow. In general terms: Surface plasmon resonance follows binding to a sensor surface in real time, without labels.
The molecule B1 had a Kd of 6.3 nM.

In the case of B2, the Kd worked out at 5.05 nM.

B3 yielded a dissociation constant (Kd) of 2.6 nM.

The molecule B4 showed a dissociation constant (Kd) of 4.59 nM.

B5 had an equilibrium dissociation constant (Kd) of 10.2 nM.

With B6, the Kd was 4.19 nM.
